Source: PubChem BioAssay AID1345082 (National Center for Advancing Translational Sciences (NCATS), 2018)
Out of some 94,000 compounds screened, about 4,000 (4.3%) were called active. The inconclusive results got no clear call from the source; some entries with a clear call stand among them for comparison. Calls follow the shape of the dose curve; as a rule, active = well fitted inhibition curve with a large enough effect; inconclusive = small, poorly fitted or top-dose-only effect; inactive = no such curve, though single readings can be large or run the other way. Potencies of inconclusive entries are doubtful fits and often do not repeat.
Potency is read from the fitted curve at half-maximal effect; tags tell the direction and shape of the fitted curve.

Assay: Cytotoxic Profiling in NIH 3T3 Cell Line of Diverse Libraries Using Quantitative High-Throughput Screening; also: nearly all actives have a fitted effect of over 55% in size
Conditions: NIH 3T3 viability, CellTiter-Glo ATP luminescence, 48-72 h; series mostly up to 96.7 µM
Summary of the method: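 First NIH 3T3 cells are plated at 400 cells/well; next compound is pinned in; then plates incubate 48 or 72 hr at 37 °C; finally CellTiter-Glo is added and luminescence read after 10 min.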
In the case of CCOCCOC1CCN(C(=O)c2ccc3cc[nH]c3c2)CC1, the Potency is reported as “inactive”.
With Cc1c(-c2ccccc2F)[nH]c2ccc(CNC(=O)Cn3ccc(=O)[nH]c3=O)cc12 the Potency was active: 44.7 µM.
For Cc1cn2nc(C(=O)Nc3ccc(F)cc3)cc2c(N(C)Cc2ccccc2)n1, the Potency was inconclusive: 39.8 µM [inhibitor, partial curve].
With COc1ccc(CCNC(=O)c2cc3c(N4CCCC4)nc(C)cn3n2)cc1OC the Potency was inconclusive: 44.7 µM [inhibitor, partial curve, poor fit].
With Cn1c(CNC(=O)C2CCN(c3cn[nH]c(=O)c3)C2)nc2ccccc21 (stereo not drawn) the Potency was inconclusive: 35.5 µM [inhibitor, partial curve, poor fit].
With Cc1nn(-c2ccccc2)c2c1C(C(C)C)N(C1CCCN(C(=O)c3ccccc3Cl)C1)C2=O (stereo not drawn) the Potency was inconclusive: 31.6 µM [inhibitor, partial curve, poor fit].
For C=CCOCC(O)CN1CCC(=O)N(Cc2ccco2)Cc2c1ccc(OC)c2OCC=C (stereo not drawn), the Potency was “inactive”.
In the case of O=C1CC(c2ccccc2)N(C(=O)CNS(=O)(=O)c2cccs2)CCCCCN1 (stereo not drawn), the Potency is reported as inconclusive: 56.2 µM [inhibitor, partial curve, poor fit].
In the case of COc1cccc(-c2cn3cc(C(=O)NCc4cccc(Cl)c4)nc3s2)c1, the Potency is reported as inconclusive: 44.7 µM [inhibitor, partial curve, poor fit].
For O=C(Nc1ccc(Cl)cc1)c1nc2c(o1)CCN(Cc1cccc(O)c1)CC2, the Potency was inconclusive: 56.2 µM [inhibitor, partial curve, poor fit].
In the case of O=C(N1CCN(S(=O)(=O)c2cccs2)CC1)N1CC2CC(C1)[C@H]1CCCC(=O)N1C2 (stereo partly drawn), the Potency is reported as “inactive”.
In the case of O=C(NC[C@H]1OC[C@@H](N(Cc2ccccn2)Cc2ccccn2)[C@@H]1O)C1CCCC1, the Potency is reported as inconclusive: 112 µM [inhibitor, single point].
With O=C(c1ccoc1)N1CCC(c2n[nH]c(=O)n2Cc2ccc(F)cc2)CC1 the Potency was inconclusive: 56.2 µM [inhibitor, partial curve, poor fit].
For CC(C)C[C@@H]1N[C@H](C(=O)NC(C)C)Cc2cn(Cc3nccn3C)c3cccc1c23, the Potency was active: 79.4 µM.
In the case of COc1ccccc1-c1[nH]nc2ncc(-c3cnn(C)c3)nc12, the Potency is reported as inconclusive: 20 µM [inhibitor, full curve, poor fit].
In the case of CC(=O)N[C@H]1C[C@@H](Cc2cc(CN3CCCCC3)on2)C1(C)C, the Potency is reported as inconclusive: 112 µM [inhibitor, single point].
In the case of O=C(Nc1ccc(F)cc1)C1CCN(c2ccnc3ccnn23)CC1, the Potency is reported as inconclusive: 31.6 µM [inhibitor, partial curve, poor fit].
With COC(=O)[C@@H]1Cc2c([nH]c3ccccc23)[C@H]2C[C@H](NCCNC(C)=O)C[C@@H](c3ccc(C(F)(F)F)cc3)N21 the Potency was active: 28.2 µM.
With CC1=C[C@@H](CNC(=O)c2ccc(F)cc2)[C@H](C(C)C)C[C@H]1Cc1nnc(-c2ccncc2)o1 the Potency was inconclusive: 50.1 µM [inhibitor, partial curve, poor fit].
With CN1C[C@H]2CN(Cc3c[nH]c4ccccc34)CCN2C1=O the Potency was inconclusive: 100 µM [inhibitor, partial curve, poor fit].
In the case of COc1ccc(CNC(=O)c2c(C)noc2-c2ccccc2C)cc1, the Potency is reported as inconclusive: 44.7 µM [inhibitor, partial curve, poor fit].
For Cc1c(-c2ccc(F)cc2)[nH]c2ccc(CNC(=O)c3n[nH]c4c3CCCC4)cc12, the Potency was active: 31.6 µM.
With CN(CC(=O)N1CCC(CCOc2ccc(F)cc2)C1)S(=O)(=O)c1ccc2c(c1)oc(=O)n2C (stereo not drawn) the Potency was inconclusive: 39.8 µM [inhibitor, partial curve, poor fit].
With Cc1nn(-c2ccccc2)c2c1C(C(C)C)N(C1CN([S+](=O)([O-])c3ccccc3)C1)C2=O (stereo not drawn) the Potency was “inactive”.
For O=C(NC1CCCN(Cc2ccc(-c3cncnc3)cc2)C1)c1ccccc1Cl (stereo not drawn), the Potency was inconclusive: 35.5 µM [inhibitor, partial curve, poor fit].
With CO[C@H]1C[C@@H](O)C12CCN(C(=O)c1oc(COc3ccccc3)cc1C)CC2 the Potency was inconclusive: 56.2 µM [inhibitor, partial curve, poor fit].
With COCCOc1ccnc(-c2noc([C@@H]3CCCN3Cc3cccc(OC(F)(F)F)c3)n2)c1 the Potency was inconclusive: 50.1 µM [inhibitor, partial curve, poor fit].
For CN1CC(=O)N(c2ccccc2)Cc2c1ncnc2N1CCN(c2ccccn2)CC1, the Potency was “inactive”.
In the case of Cn1cc2c3c(cccc31)CN(C(=O)c1cccc(Br)c1)CC2, the Potency is reported as inconclusive: 50.1 µM [inhibitor, partial curve, poor fit].
For O=C(NCCc1c[nH]c2ccccc12)[C@@H]1C[C@H]2C(=O)NCCCCCCN(C(=O)C3CC3)[C@H]2C1, the Potency was inconclusive: 56.2 µM [inhibitor, partial curve, poor fit].
With O=C(c1ccccc1)N1CCC(n2cc(-c3nc(C4CC4)no3)nn2)C1 (stereo not drawn) the Potency was inconclusive: 56.2 µM [inhibitor, partial curve, poor fit].
In the case of COc1ccc(CNC(=O)[C@@]23CCCC[C@H]2N(C)C(=O)CC3)c(OC)c1, the Potency is reported as “inactive”.
For O=C(c1ccccc1)N1CCC2(CC1)N=C(c1ccc(Br)cc1)NO2, the Potency was inconclusive: 44.7 µM [inhibitor, partial curve, poor fit].
For COc1ccccc1-c1cc2c(ccn2C)c(C(=O)NCC2CCN(C)C(=O)C2)n1 (stereo not drawn), the Potency was active: 79.4 µM.
With COc1ccc(OC)c(CNC(=O)c2ccc3c(c2)C(O)CCCCCN3C)c1 (stereo not drawn) the Potency was inconclusive: 50.1 µM [inhibitor, partial curve, poor fit].
For COc1ccc(Cn2c(=O)c(C(=O)NCC(F)(F)F)nc3cccnc32)cc1, the Potency was “inactive”.
With C[S+](=O)([O-])N1CCCC2(C1)C(=NC1CCCC1)NC(=O)N2c1cc(F)cc(F)c1 (stereo not drawn) the Potency was “inactive”.
For Cc1cc(F)cc(CN2CCOc3cc([S+](=O)([O-])N(C)C)ccc3C2)c1, the Potency was active: 39.8 µM.
